The values that follow come from ChEMBL document CHEMBL4888484, “Replenishing the malaria drug discovery pipeline: Screening and hit evaluation of the MMV Hit Generation Library 1 (HGL1) against asexual blood stage Plasmodium falciparum ,using a nano luciferase reporter read-out” (2022).

SMILES strings stand for the structures. Hit rate of the full screen: of about 150,000 compounds, about 540 (0.36%) showed an effect of 50% or more. The list shows a part of the results.

In the assay the test system is Plasmodium falciparum. Description: Primary screen in NF54 nanoGlo assay, in single point, at 2uM, 72h; a lower Z score goes with more inhibition. The class given is functional, Erythrocyte. Particulars: timepoint 72 hour.
Take `CCCC1CCCN(C(C)c2nnc(-c3cccs3)o2)CC1` (stereo unspecified): the % Inhibition (usually the relative decrease from the control value, in per cent) is listed as -9% and the Z score was found to be 1.23.

`CCOc1ccc(C(=O)NCCc2cc(C)n(C)n2)cc1`: the “% Inhibition” value is listed as -5% and the Z score is listed as 0.95.

On to `O=C(c1csc2ccccc12)N1CC[C@H](Nc2ncccn2)[C@@H](O)C1`, for which the “% Inhibition” value is listed as -6% and the Z score was 1.06.

For the molecule `CC(C)(C)c1noc([C@@H](c2ccccc2)n2cccn2)n1`, the “% Inhibition” value is listed as -8% and the Z score worked out at 1.35.

In the case of `CCNC(=O)[C@@](C)(NS(=O)(=O)c1cccs1)C(F)(F)F`, the “% Inhibition” value was -3% and the Z score is reported as 0.41.

On to `CCCCn1nc(C)nc1CCCn1cccn1`, for which the “% Inhibition” value came out at 2% and the Z score is on record as -0.28.

On to `COc1ccc(CNC(=O)[C@]2(C)Cn3cnc(C(=O)Nc4ccc(Cl)cn4)c3C(=O)N2C2CC2)cc1`, for which the “% Inhibition” value was -9% and the Z score was 0.89.

For the molecule `CCn1nc(C(C)C)cc1-c1nc(CC(N)=O)nn1CC(C)(C)O`, the “% Inhibition” value is recorded as -5% and the Z score came to 0.61.

For the molecule `COC(=O)c1nccc2c(S(=O)(=O)NCC(C)(C)C[C@H](C)O)cccc12`, the “% Inhibition” value was -9% and the Z score was determined as 0.91.

Take `CCOc1cccc(CN(CCO)C(=O)N[C@@H](C)C(=O)N(C)C)c1`: the “% Inhibition” value is -27% and the Z score worked out at 3.52.

As to `CCc1cnc(N)nc1NC[C@H](C)Oc1cccnc1`, the “% Inhibition” value is recorded as -6% and the Z score came out at 1.04.

As to `COc1cccc(CNC(=O)CCc2nc(N3CCC(C)CC3)c3c(C)noc3n2)c1`, the “% Inhibition” value is on record as -3% and the Z score worked out at 0.41.

Take `Cc1cc(C(=O)N2CC(C)OC(C)C2)c(C)n1C(C)C` (stereo unspecified): the “% Inhibition” value is listed as -8% and the Z score was found to be 1.06.

In the case of `O=C1C[C@H](NC2CCC(C(F)(F)F)CC2)CN1CC(F)(F)F` (stereo partly specified), the “% Inhibition” value is recorded as 0% and the Z score was determined as 0.04.

For `Cc1c(Cl)cc(C(=O)N2CC[C@@H]3CNC[C@@H]32)cc1Cl`, the “% Inhibition” value is recorded as -6% and the Z score was 0.67.

With `CCC(CC)N(Cc1ccccc1F)C(=O)c1ccc2c(c1)ncn2CCO`, the “% Inhibition” value was -5% and the Z score is 0.68.

Take `NCc1cc(Br)ccc1F`: the “% Inhibition” value was -2% and the Z score was 0.16.

In the case of `Cc1sc2ncnc(N3CCc4nocc4C3)c2c1C`, the “% Inhibition” value is given as -10% and the Z score is 1.82.

With `Cc1nc(C)c(C)c(N(C)Cc2cnn(-c3ccccc3)c2)n1`, the “% Inhibition” value came to 7% and the Z score is on record as -1.03.

As to `Cc1ccc(CN(C)C(=O)[C@H]2CCc3ccccc3C2)o1`, the “% Inhibition” value is reported as -9% and the Z score came to 0.94.

With `CN1CCCC2CN(c3nc4ccccc4[nH]3)CCC21` (stereo unspecified), the “% Inhibition” value is given as -7% and the Z score stood at 0.82.

For `CN(C)C(=O)CO[C@H]1COCC[C@@H]1NC(=O)c1ccc(F)c(Cl)c1`, the “% Inhibition” value is recorded as -15% and the Z score is recorded as 2.52.

For `Cc1c(Cl)cccc1CNC(=O)CC[C@@H]1NC(=O)NC1=O`, the “% Inhibition” value is -22% and the Z score is recorded as 2.22.

Consider `COC(=O)C1CCN(C(=O)c2cc(NC(=O)CC3CCCC3)cc3nc([C@@H]4CCCO4)n(C)c23)CC1`, for which the “% Inhibition” value is -14% and the Z score was determined as 1.88.

With `CCCC1(CNC(=O)N2CCOCC2)CC1`, the “% Inhibition” value is given as -6% and the Z score is recorded as 0.69.

For `Nc1nc(CCC(=O)N[C@H]2CC[C@@H]3CCC[C@@H]32)cs1`, the “% Inhibition” value is on record as -8% and the Z score is on record as 0.95.

On to `Cc1ccc(Cc2nc(N3CCCN(C(=O)CCc4ccccc4)CC3)c3cnn(-c4ccccc4)c3n2)cc1`, for which the “% Inhibition” value is given as 32% and the Z score was -0.91.

With `COC(=O)[C@H](CC(C)C)N(C)C(=O)c1ccn(C)n1`, the “% Inhibition” value is recorded as -7% and the Z score is recorded as 1.43.

In the case of `Cc1ccc(C[C@H](NC(=O)Cc2ccc(C)nc2)c2ccccn2)cc1`, the “% Inhibition” value was found to be 5% and the Z score is listed as -0.61.

`O=C1COc2ccc(S(=O)(=O)N3CCc4ccccc43)c3c2N1CCC3`: the “% Inhibition” value is on record as -7% and the Z score stood at 0.73.

In the case of `Cc1oc2ccccc2c1CNS(=O)(=O)CCC1CCC1`, the “% Inhibition” value was -3% and the Z score stood at 0.48.

Consider `O=C(c1cc(S(=O)(=O)N2CCCCC2)cs1)N1CCOCC1`, for which the “% Inhibition” value is on record as -24% and the Z score was found to be 2.75.

As to `CCc1[nH]nc(-c2cccs2)c1NC(=O)c1ccccc1OC`, the “% Inhibition” value was -7% and the Z score was 1.03.

For the molecule `Cn1cc(-c2ccc3c(c2)OCC[C@H]2CN(C(=O)c4c(F)cccc4F)CC[C@H]2CC(=O)N3)cn1`, the “% Inhibition” value is given as -5% and the Z score is listed as 0.81.

Turning to `COCCOC[C@H]1CCN(C(=O)c2cc(Br)cn2C)C1`, the “% Inhibition” value is reported as -4% and the Z score was 0.36.

For the molecule `COc1ccc(CN(CCO)C2CCCCC2)nn1`, the “% Inhibition” value is given as -6% and the Z score was determined as 0.9.

Consider `CC(C)C(CNC(=O)N1CCS(=O)(=O)CC1C)c1ccccc1` (stereo unspecified), for which the “% Inhibition” value is -11% and the Z score was found to be 1.16.

As to `N#CC1CCCC(Nc2cccc(C(=O)NCc3ccccn3)c2)C1` (stereo unspecified), the “% Inhibition” value is reported as -7% and the Z score was found to be 0.75.

As for `FC(F)(F)c1cnc(NC2CC2)c(Cl)c1`, the “% Inhibition” value came to 2% and the Z score is given as -0.38.

As to `Cc1cc(CS(=O)(=O)N2C[C@@H](N(C)C)Cc3ccccc32)no1`, the “% Inhibition” value is on record as -6% and the Z score was 1.14.

Consider `Cc1nccn1CCC1CCN(C(=O)[C@@H]2COc3ccccc3C2)CC1`, for which the “% Inhibition” value came out at 3% and the Z score is -0.51.

For the molecule `O=C(CN1CCN(c2ccc(F)c(F)c2)C1=O)NCc1ccco1`, the “% Inhibition” value is on record as 3% and the Z score was -0.37.

As to `COc1ccc(-c2nnc(-c3ccc(OC)c(S(=O)(=O)N4CCCCCC4)c3)o2)cc1OC`, the “% Inhibition” value came to 4% and the Z score is recorded as -0.6.
